The campaign covered roughly 52,000 compounds. About 4,300 (8.3%) were called active. Rule as the data show it: active = survival mostly below about 52% (no sharp cut-off); inactive = mostly above about 56%. This is one part of the list.
The compounds below were run on DeltatarO mutant (assay: growth inhibition of S. aureus wild type versus tarO mutant, primary screen, teichoic acid synthesis inhibitors, RN4220, OD600 (AID 463173)). Conditions: OD600, 18 h, active compounds read low, screened at 18.75 µg/mL (by protocol).

| Structure (SMILES) | survival |
| --- | --- |
| CCN1CCN(c2oc(-c3ccc(COc4ccc(OC)cc4)o3)nc2C#N)CC1 | active: 49% |
| COc1ccc(OC)c(C(=O)CN2C(=O)N(c3cc(C)cc(C)c3)S(=O)(=O)c3ccccc32)c1 | inactive: 81% |
| Clc1cccc(-n2ncc3c(NCCC4=CCCCC4)ncnc32)c1 | active: 37% |
| O=C(NCc1cccnc1)C(C(=O)c1ccc(F)cc1)n1ccccc1=O (centres undefined) | inactive: 93% |
| O=C(NC1CCCC1)C(c1ccccn1)N(C(=O)c1ccc2c(c1)OCCO2)c1ccccc1 (centres undefined) | inactive: 94% |
| COc1ccc(C)cc1NC(=O)CSc1nc(=O)n(Cc2cccnc2)c2c1CCC2 | inactive: 97% |
| CCCCCN1C(C(=O)c2ccccc2)=C(NC(=O)c2ccc(OC)c(OC)c2)c2ccccc2S1(=O)=O | inactive: 84% |
| COC(=O)c1ccccc1NC(=O)CSc1cc(-c2ccccc2)nc(C)n1 | inactive: 71% |
| Clc1ccc(-c2ccc(CNCCSc3nnnn3-c3ccccc3)o2)cc1 | inactive: 52% |
| COc1ccc(NC(=O)N2CCC(CN3CCCC3)CC2)c(OC)c1 | inactive: 76% |
| O=C(C1CCCN(S(=O)(=O)c2cccc3nonc23)C1)N1CCN(c2ccccc2F)CC1 (centres undefined) | inactive: 82% |
| CCn1c(=O)c2sccc2n2c(CCCC(=O)Nc3ccc(C)cc3)nnc12 | inactive: 76% |
| Cc1ccc(N2CCN(c3ncnc4onc(-c5ccc(F)cc5)c34)CC2)c(C)c1 | inactive: 84% |
| COc1ccc(-n2nnnc2C2CCN(S(=O)(=O)c3cc(Cl)ccc3OC)CC2)cc1 | inactive: 68% |
| COc1cc(NC(=O)c2c(C)nn(-c3ccc(F)cc3)c2-n2cccc2)cc(OC)c1 | inactive: 78% |
| Cc1ccc(S(=O)(=O)NCCc2nnc3ccc(SCc4cccc(F)c4)nn23)cc1 | inactive: 65% |
| COc1ccccc1NC(=O)C(C#N)Cc1cc2cc(C)cc(C)c2[nH]c1=O (centres undefined) | inactive: 98% |
| CCC(C)(C)NC(=O)Cn1nnc(-c2ccc(OC)cc2)n1 | inactive: 94% |
| CCCCN1C(=O)C(NC(=O)c2ccc(C(C)(C)C)cc2)(C(F)(F)F)C(C(=O)OC)=C1C (centres undefined) | inactive: 59% |
| COc1ccc(-c2nc(SCC(=O)NCc3nc4ccccc4n3C)n3[nH]c(=O)cc3n2)cc1 | inactive: 74% |
| COc1ccc(NC(=O)C2CCN(c3nc4ccccc4[nH]3)CC2)cc1OC | inactive: 66% |
| Cc1cc(O)c(C(c2ccc(F)cc2)N2CCN(c3ccccc3)CC2)c(=O)n1Cc1ccco1 (centres undefined) | inactive: 77% |
| CC(NC(=O)c1cccc(Nc2nc3ccccc3n3nnnc23)c1)c1ccccc1 (centres undefined) | inactive: 79% |

| Structure (SMILES) | survival |
| --- | --- |
| O=C1C2=C(Nc3ccccc3SC2c2ccc(C(F)(F)F)cc2)c2ccccc21 (centres undefined) | active: 16% |
| O=C(CN1C=NS(=O)(=O)c2ccccc21)Nc1ccc(Br)cc1 | inactive: 92% |
| Cc1ccccc1CNC(=O)CCCn1ncn2c(cc3occc32)c1=O | inactive: 73% |
| Cc1ccc(CC23CN4CC(CN(C4)C2)C3=O)c(C)c1 | inactive: 89% |
| COc1ccc(NC(=O)CSC2=Nc3ccccc3C3=NC(Cc4ccccc4)C(=O)N23)cc1 (centres undefined) | inactive: 87% |
| COc1ccccc1Nc1ncc2c(n1)CCN(CC(C)C)C2 | inactive: 76% |
| COCCNC(=O)c1ccc2c(c1)NC(=O)C(CS(=O)(=O)Cc1ccc(F)cc1Cl)N2 (centres undefined) | inactive: 130% |
| COc1cccc(CNC(=O)c2ccc3oc(=O)n(Cc4ccccc4)c3c2)c1 | active: -1% |
| CCCN1C2CCCC1CC(NC(=O)c1ccccc1C)C2 (centres undefined) | inactive: 76% |
| COc1ccc(-c2nc3ccccc3o2)cc1NC(=O)c1ccc(-c2ccc(C)c(Cl)c2)o1 | active: 41% |
| CC(C)CC(=O)Nc1nc2ccc(S(C)(=O)=O)cc2s1 | inactive: 53% |
| N#CC(C#N)C(CC(=O)c1ccccc1)c1ccc2c(c1)OCO2 (centres undefined) | inactive: 51% |
| N=c1n(CC(N)=O)c2ccccc2n1Cc1ccccc1Cl | inactive: 99% |
| COc1ccc(CC(=O)Nc2c(C(=O)N3CCN(c4ccccc4F)CC3)oc3ccccc23)cc1OC | inactive: 78% |
| Cc1ccc(Nc2c(-c3ccco3)nc3ccc(C)cn23)cc1 | inactive: 112% |
| CCN(C(=O)c1cc2c(=O)oc3ccccc3c2s1)c1cccc(C(F)(F)F)c1 | inactive: 145% |
| CCOc1ccc(OCC)c(Nc2nc3ccccc3n3nnnc23)c1 | inactive: 96% |
| CCOC(=O)c1c(NC(=O)c2ccc(F)cc2)sc2c1CCC(CC)C2 (centres undefined) | active: 9% |
| CCOC(=O)c1cccc(NC(=O)[C@H](CSCc2ccccc2)N2Cc3ccccc3C2=O)c1 | inactive: 66% |
| Cc1ccc(Nc2cc(C)nc3nncn23)c(C)c1 | inactive: 99% |
| CCOc1ccc(-c2nc3ccccc3c(=O)o2)cc1 | inactive: 68% |
| COc1cc(NC(=O)CN(c2cc(C)cc(C)c2)S(=O)(=O)c2c(C)[nH]c(=O)[nH]c2=O)cc(OC)c1 | inactive: 66% |
| C#CC(C)(CC)NC(=O)Cn1nnc(-c2ccc(OCc3c(F)cccc3Cl)cc2)n1 (centres undefined) | inactive: 65% |

| Structure (SMILES) | survival |
| --- | --- |
| Cc1cn2c(=O)cc(COc3ccc(NC(=O)COc4ccccc4)cc3)nc2s1 | inactive: 131% |
| Cc1ccc(-n2c(=O)c3ccc(C(=O)NCc4ccccc4Cl)cc3n(CC(=O)Nc3ccc(C)cc3C)c2=O)cc1 | inactive: 79% |
| O=C(CSc1ncc2c(n1)-c1ccccc1N(Cc1ccc(F)cc1)S2(=O)=O)NCCc1ccccc1 | inactive: 94% |
| Cc1cc(C)cc(C(=O)n2nc(C)c(S(=O)(=O)N3CCOCC3)c2C)c1 | inactive: 87% |
| CN1C(=O)C2(c3ccccc31)N(c1ccc(Br)cc1)C(=O)CS2(=O)=O (centres undefined) | inactive: 99% |
| O=C(C1CCC(Cn2c(=O)c3sccc3n(Cc3ccc(F)cc3)c2=O)CC1)N1CCOCC1 (centres undefined) | inactive: 77% |
| O=c1[nH]c(C2CCCN(S(=O)(=O)c3ccccc3)C2)nc2c1nnn2Cc1ccc(OC(F)(F)F)cc1 (centres undefined) | inactive: 76% |
| Cc1cc(C)nc(NCC(C)c2ccccc2)n1 (centres undefined) | inactive: 81% |
| CN1C(=O)c2[nH]nc(-c3ccc(F)cc3)c2C1c1cccc(O)c1 (centres undefined) | inactive: 91% |
| CCOc1ccccc1C(=O)N1CCOCC1 | inactive: 88% |
| CCc1[nH]nc2c1C1(C(=O)N(CC)c3ccccc31)C(C#N)=C(N)O2 (centres undefined) | inactive: 78% |
| Cn1cc(-c2cc3n(n2)CCC(=O)N3CCCC(=O)NCc2ccccc2Cl)c2ccccc21 | inactive: 109% |
| CCOC(=O)c1noc2ncn(CC(=O)Nc3ccccc3OC)c(=O)c12 | inactive: 118% |
| COc1cccc(CNC(=O)CCc2c(C)c3ccc(O)c(C)c3oc2=O)c1 | inactive: 86% |
| Cc1ccc(OCCOCCn2c(-c3ccc(Cl)cc3)nc3ccccc3c2=O)cc1 | active: 39% |
| CCCCN(CC)CCCNC(=O)c1ccc2c(c1)NC(=O)CN2C | inactive: 64% |
| Cc1ccc(-n2ncc(C(=O)NCCCN3CCc4ccccc4C3)c2C2CCN(C(=O)OC(C)(C)C)CC2)c(C)c1 | inactive: 115% |
| CCCCOc1ccc(C2C(=O)N(C3CCCCC3)CC(=O)N2CCCC)cc1 (centres undefined) | inactive: 89% |
| O=C(O)C1CCCCC1C(=O)N1CCc2ccccc21 (centres undefined) | inactive: 84% |
| Cc1ccc(NC(=O)Cn2c(-c3nonc3N)nc3ccccc32)c(Br)c1 | inactive: 71% |
| CCn1nc(CCC(=O)O)c2ccccc2c1=O | inactive: 80% |
| Cc1ccc(N2CCN(c3ccc(C)cc3)C2c2ccc(C)o2)cc1 | inactive: 76% |
| COc1ccc(C)cc1NC(=O)CN1C(=O)COc2ccc(S(=O)(=O)N3CCC(C)CC3)cc21 | inactive: 69% |

| Structure (SMILES) | survival |
| --- | --- |
| Cc1c(Cl)cccc1NC(=O)C(C)n1c(=O)cc(C)c2c(C)nn(-c3ccccc3)c21 (centres undefined) | inactive: 88% |
| Cc1n[nH]c(=S)n1CC(=O)N1c2ccccc2CCc2ccccc21 | inactive: 94% |
| CCOc1ccc(-n2c(=O)c3c(C)c(C)sc3n(Cc3ccccc3C)c2=O)cc1 | inactive: 85% |
| CCCc1[nH]nc2c1C(CCC)C(C#N)=C(N)O2 (centres undefined) | inactive: 81% |
| COc1ccc2c(c1)CCc1c(C(=O)Nc3ccc(C#N)cc3)noc1-2 | inactive: 58% |
| COc1ccc(-n2c(SCc3ccccc3)nc3c([nH]c4ccccc43)c2=O)cc1 | inactive: 144% |
| CC(C(=O)N1CCCc2ccccc21)N1C(=O)c2ccccc2C1=O (centres undefined) | inactive: 76% |
| COc1cccc(CNC(=O)Cn2nc(N3CCN(c4ccccc4OC)CC3)ccc2=O)c1 | inactive: 86% |
| S=C(NNc1nc(N2CCCCC2)nc(N2CCCCC2)n1)NC1CCCCC1 | inactive: 88% |
| CCOCCn1ccc2c(OCC(=O)Nc3cccc([N+](=O)[O-])c3)cccc2c1=O | inactive: 118% |
| COc1cccc(C(=O)Nc2ccccc2OCc2cc(=O)n3ccccc3n2)c1 | inactive: 97% |
| Cc1noc(/C=C/c2cccs2)c1S(=O)(=O)N1CCC(C(=O)NCc2ccc(Cl)cc2)CC1 | inactive: 71% |
| Cc1cccn2c(=O)c(/C=C(\C#N)c3nc4ccccc4s3)c(Oc3ccc(F)cc3)nc12 | inactive: 80% |
| Cc1cc(N(CCO)Cc2ccccc2)n2nc(-c3ccc(C(C)(C)C)cc3)nc2n1 | inactive: 48% |
| COc1cc(OC)c(NC(=O)c2cn(C3CCCC3)c(=O)c3c2c2ccccc2n3C)cc1Cl | inactive: 74% |
| Cc1cc(C)c(S(=O)(=O)Nc2ccc3oc4c(c3c2)C(=O)CC(C)(C)C4)cc1C | inactive: 60% |
| COc1ccc(-c2cnc(C)o2)cc1S(=O)(=O)Nc1ccc(F)cc1F | inactive: 112% |
| CN(C)CCCNC(=O)C(=O)NCC(c1ccc2c(c1)OCO2)N1CCOCC1 (centres undefined) | inactive: 106% |
| Cc1nc2nc(SCC(=O)Nc3ccccc3Cl)nn2c(C)c1Cc1ccccc1 | active: 20% |
| COc1cc2c(cc1OC)C(COc1ccc(F)cc1)N(C(=O)c1cccc(F)c1)CC2 (centres undefined) | inactive: 67% |
